Assay results reported in article PMC13083723 (Patterns, 2026).
In all, about 5,400 compounds went through this assay and about 190 (3.5%) showed an effect of 50% or more. The list shows a part of the results.

test system: Vero-E6; experiment: primary screen, phospholipidosis by LipidTOX staining; higher = more effect of the substance; conditions: 10 µM
Method in brief: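 Single-concentration screen at 10 μM, with DMSO 0.1 v/v % and amiodarone 10 μM as controls. Read-out is LipidTOX Red phospholipid staining, which tolerates aldehyde fixation, in Vero-E6 cells.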

| Compound | result_ITMP [%] |
| --- | --- |
| C/C(=C\c1csc(C)n1)[C@@H]1C[C@@H]2O[C@]2(C)CCC[C@H](C)[C@H](O)[C@@H](C)C(=O)C(C)(C)[C@@H](O)CC(=O)N1 | -0.28 |
| C1COC(NC(C2CC2)C2CC2)=N1 | -9.1 |
| Cc1cc(C(C)(C)C)c(O)c(C(C)(C)C)c1 | -5.89 |
| COc1ccc(-c2cc(=S)ss2)cc1 | -2.06 |
| N[C@@H](CSS(=O)(=O)[O-])C(=O)O | -1.62 |
| COc1ccc(NS(=O)(=O)c2sc3ccc(Cl)cc3c2C)cc1N1CCNCC1 | 36.8 |
| CN1CCC(c2c[nH]c3ccc(O)cc23)CC1 | -2.21 |
| CN/C(=C\[N+](=O)[O-])NCCSCc1ccc(CN(C)C)o1 | -3.1 |
| CC(C)[C@@]1(NC(=O)[C@@H]2C[C@@H]3c4cccc5[nH]cc(c45)C[C@H]3N(C)C2)O[C@@]2(O)[C@@H]3CCCN3C(=O)[C@H](Cc3ccccc3)N2C1=O | 11.6 |
| Cc1c(C(=O)NCc2cccnc2)nn(-c2ccc(Cl)cc2Cl)c1-c1ccc(Cl)cc1 | -1.97 |
| O[C@@H]1CO[C@H]2[C@@H]1OC[C@@H]2O | -0.79 |
| CC1(C)CCC(C)(C)c2cc(C3(c4ccc(C(=O)O)cc4)OCCO3)ccc21 | 1.81 |
| CC(C)Oc1ccc(-c2nc(-c3cccc4c3CCC4NCCC(=O)O)no2)cc1C#N (centres unmarked) | -0.21 |
| O=C(O)c1cn(C2CC2)c2cc(N3CCNCC3)c(F)cc2c1=O | -1.31 |
| CC(=O)C1=C(O)[C@@H]2[C@H]3c4c[nH]c5cccc(c45)C[C@H]3C(C)(C)N2C1=O | -1.91 |
| CCCn1c(=O)[nH]c(=O)c2[nH]cnc21 | 0.34 |
| COC(=O)Nc1nc2ccc(Sc3ccccc3)cc2[nH]1 | -0.23 |
| OC[C@H]1O[C@@H](n2cnc3c(NC4CCCC4)ncnc32)[C@H](O)[C@@H]1O | -1.75 |
| COc1cc2ncn(-c3cc(OCc4ccccc4C(F)(F)F)c(C(N)=O)s3)c2cc1OC | -2.1 |

| Compound | result_ITMP [%] |
| --- | --- |
| O=C1C=C2C=C[C@@H]3C[C@@]2(O1)[C@H]1CCCCN31 | -1.13 |
| CSc1cc2c(cc1C(F)(F)F)N(C(=O)Nc1cccnc1)CC2 | -9.16 |
| Cc1cc2nc3c(=O)[nH]c(=O)nc-3n(C)c2cc1C=O | 0.33 |
| CC(C)C(=O)Oc1ccc(CO)cc1[C@H](CCN(C(C)C)C(C)C)c1ccccc1 | 7.66 |
| CCOC(=O)COc1ccc2c(=O)cc(-c3ccccc3)oc2c1 | -8.68 |
| CCCCCCCCCCCCCC[C@@H](O)[C@@H](O)[C@@H](N)CO | -1.8 |
| COc1cc2c(Nc3ccc(Br)cc3F)ncnc2cc1OCC1CCN(C)CC1 | 105 |
| CCc1c2c(nc3ccc(O)cc13)-c1cc3c(c(=O)n1C2)COC(=O)[C@]3(O)CC | -3.55 |
| CCOC(=O)O[C@]1(C(=O)OCCl)CC[C@H]2[C@@H]3CCC4=CC(=O)C=C[C@]4(C)[C@H]3[C@@H](O)C[C@@]21C | -0.35 |
| CCN[C@@H](C)Cc1cccc(C(F)(F)F)c1 | 3.76 |
| Cc1oc(-c2ccccc2)nc1CCOc1ccc(CC2SC(=O)NC2=O)c2sccc12 (centres unmarked) | -1.81 |
| CCc1cc2c(cc1N1CCC(N3CCOCC3)CC1)C(C)(C)c1[nH]c3cc(C#N)ccc3c1C2=O | 2.32 |
| C[C@]12CC[C@H]3[C@@H](CCC4=CC(=O)CC[C@@H]43)[C@@H]1CC[C@@H]2O | -1.6 |
| N=C(N)c1ccc(N2CCN(C3CCN(CC(=O)O)CC3)CC2)cc1 | -2.17 |
| COc1cc(N2CCC(O)CC2)ccc1Nc1cc(Nc2ccccc2S(=O)(=O)C(C)C)c2cc[nH]c2n1 | -2.59 |
| Clc1ccc(C(Cn2ccnc2)OCc2ccsc2Cl)c(Cl)c1 (centres unmarked) | 5.85 |
| COc1cc(C(=O)N2CCC(N3CCN(C)CC3)CC2)ccc1Nc1ncc2c(n1)N(C)c1ccccc1C(=O)N2C | 37.9 |
| CCCC1C(=O)N2C(N(C)C)=Nc3ccc(C)cc3N2C1=O (centres unmarked) | -1.18 |
| c1cnc(N2CCN(Cc3ccc4c(c3)OCO4)CC2)nc1 | -0.76 |

| Compound | result_ITMP [%] |
| --- | --- |
| COC(=O)/C=C/c1cccc(N(Cc2ccc(-c3ccc(N(C)C)cc3)cc2)C(=O)C2CCCCC2)c1 | -5.62 |
| C/C(=C\CNc1ncnc2nc[nH]c12)CO | -1.84 |
| C[C@](N)(Cc1ccc(O)c(O)c1)C(=O)O | -2.15 |
| C[C@@H](Nc1cc(F)cc(F)c1)c1cc(C(=O)N(C)C)cc2c(=O)cc(N3CCOCC3)oc12 | 14.6 |
| COc1nc2ccc(Br)cc2cc1[C@@H](c1ccccc1)[C@@](O)(CCN(C)C)c1cccc2ccccc12 | 18.7 |
| CNc1cc2[nH]c(=O)n(-c3ccc(NC(=O)NS(=O)(=O)c4ccc(Cl)s4)cc3)c(=O)c2cc1F | -3.3 |
| CC(C)=CCC[C@](C)(O)[C@H]1CC[C@]2(C)[C@@H]1[C@H](O)C[C@@H]1[C@@]3(C)CC[C@H](O)C(C)(C)[C@@H]3CC[C@]12C | -1.69 |
| Cc1c(C(=O)NN2CCCCC2)nn(-c2ccc(Cl)cc2Cl)c1-c1ccc(Cl)cc1 | 4.52 |
| CCCC(=O)c1cc(F)ccc1OCC(O)CNC(C)(C)C (centres unmarked) | 20.3 |
| Cc1ccc(-c2cn3c4c(sc3n2)CCCC4)cc1 | -0.74 |
| COc1cc2c(cc1OC)CC(=O)N(CCCN(C)C[C@H]1Cc3cc(OC)c(OC)cc31)CC2 | 0.57 |
| Cc1[nH]c2ccc(F)cc2c1-c1nc2c3cccnc3c3ncccc3c2[nH]1 | -0.42 |
| CS(=O)(=O)c1ccc(-c2cn3ccccc3n2)cc1 | -2.12 |
| CCCCCCCCCCCCOCCOCCOCCOCCOCCOCCOCCOCCOCCO | 1.36 |
| NS(=O)(=O)NCCNc1nonc1/C(=N\c1ccc(F)c(Br)c1)NO | -3.83 |
| COc1cc(Br)c(S(=O)(=O)Nc2ccc(C(F)(F)F)c(O[C@@H]3CCN(C)C3)c2)cc1OC | 2.45 |
| Cc1c(-c2ccccc2)oc2c(C(=O)OCCN3CCCCC3)cccc2c1=O | 0.89 |
| C[C@H](NCc1ccc(OCc2ccccc2F)cc1)C(N)=O | -0.12 |
